“And” between values parts separate entries of the source, which are not always exact repeats. Equal values may be shown once. Out of some 270,000 compounds screened, about 5,800 (2.1%) were called active. Inconclusive means that the source gave no clear call. Such entries were picked first, then a sample of the others. The call rests on the fitted dose curve; in most records, active means well fitted inhibition curve with a large enough effect; inconclusive means small, poorly fitted or top-dose-only effect; inactive means flat fitted curve, though single readings scatter. A potency beside an inconclusive call is a rough fit, not a confirmed value.
Target: Microtubule-associated protein tau (Homo sapiens) (UniProt P10636)
Test: qHTS for Inhibitors of Tau Fibril Formation, Thioflavin T Binding; further: nearly all actives have a fitted effect of over 55% in size
Settings: recombinant tau K18 P301L (four-repeat tau fragment), heparin-induced fibrillization, ThT fluorescence; series mostly up to 57.4 µM
Outline: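 In this qHTS, human K18 P301L tau is incubated with compound and heparin for 6 hr at 37 C, and Thioflavin T fluorescence then reports fibril load.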
Potency means the concentration at half of the fitted maximal effect; tags describe the fitted curve by direction and shape.

Sequence of UniProt P10636 (P10636 whole entry, looked up): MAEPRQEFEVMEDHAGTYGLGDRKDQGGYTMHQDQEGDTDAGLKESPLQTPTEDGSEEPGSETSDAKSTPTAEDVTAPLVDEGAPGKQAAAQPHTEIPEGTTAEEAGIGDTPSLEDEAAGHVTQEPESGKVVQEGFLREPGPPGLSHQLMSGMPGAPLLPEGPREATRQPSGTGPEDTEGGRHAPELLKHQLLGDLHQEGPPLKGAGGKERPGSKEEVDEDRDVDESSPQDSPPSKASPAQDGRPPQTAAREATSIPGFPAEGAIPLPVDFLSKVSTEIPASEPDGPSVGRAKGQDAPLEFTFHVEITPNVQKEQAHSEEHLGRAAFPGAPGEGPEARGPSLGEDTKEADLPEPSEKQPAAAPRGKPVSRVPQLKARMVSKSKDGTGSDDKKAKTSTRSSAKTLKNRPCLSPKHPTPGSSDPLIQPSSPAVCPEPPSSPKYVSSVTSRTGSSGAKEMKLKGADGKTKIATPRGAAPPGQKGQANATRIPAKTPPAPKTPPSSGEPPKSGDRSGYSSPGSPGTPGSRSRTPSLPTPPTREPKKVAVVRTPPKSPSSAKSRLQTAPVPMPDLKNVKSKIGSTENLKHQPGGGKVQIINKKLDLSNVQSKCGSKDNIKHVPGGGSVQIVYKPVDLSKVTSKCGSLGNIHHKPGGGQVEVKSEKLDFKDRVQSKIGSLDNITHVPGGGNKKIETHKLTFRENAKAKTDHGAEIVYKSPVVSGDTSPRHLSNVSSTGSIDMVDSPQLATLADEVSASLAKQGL

For `Cc1ccc(-c2nnc(-c3cccc(Br)c3)o2)cc1`, which Potency is on record?
Its Potency is inconclusive: 7.94 µM [inhibitor, partial curve, poor fit].

How did the Potency turn out when `Cc1nc(S/C(=C/c2ccc(-c3cccc(Cl)c3)o2)C(=O)O)n[nH]1` was run?
Its Potency is active: 2.82 µM.

For `Cc1cccc(OCCNc2ccc([N+](=O)[O-])cn2)c1`, which Potency is on record?
The Potency was inconclusive: 35.5 µM [inhibitor, partial curve].

`O=c1nc(/C=C/c2ccc(-c3ccc(F)cc3)o2)cc(C(F)(F)F)[nH]1` was tested. Which Potency did it give?
The Potency was active: 15.8 µM.

`Cc1ccc(-c2cc(C(=O)N/N=C/c3c[nH]c4ccccc34)[nH]n2)cc1` was tested. Which Potency did it give?
Its Potency is inconclusive: 1.41 µM [inhibitor, full curve].

With `COc1ccc(C)cc1NC1(c2ccccc2)C(=O)c2ccccc2C1=O` as the molecule, how does the Potency read?
Its Potency is “inactive”.

How did the Potency turn out when `COc1ccc(/C=C2\CCc3ccccc3C2=O)cc1CN1CCOCC1` was run?
The Potency was inconclusive: 17.8 µM [inhibitor, partial curve, poor fit].

With `Cc1ccc(SCC(=O)Nc2ccc(N3CCN(C)CC3)c(F)c2)c(C)c1` as the molecule, how does the Potency read?
The Potency was “inactive”.

How did the Potency turn out when `O=C(c1cn(-c2ccccc2)nc1-c1cccs1)N1CCN(c2ccccn2)CC1` was run?
Its Potency is inconclusive: 31.6 µM [inhibitor, partial curve].

With `Cc1ccc(-c2csc(N(C)C(=O)c3c(C)nn(-c4ccccc4)c3Cl)n2)cc1` as the molecule, how does the Potency read?
The Potency was “inactive”.

With `COC(=O)C1=C(O)/C(=C\c2ccc(CNC(=O)C(=O)Nc3ccc(C)c(C)c3)o2)N=C1C` as the molecule, how does the Potency read?
The Potency was inconclusive: 15.8 µM [inhibitor, partial curve].

For `O=c1c(N2CCN(c3ccc(F)cc3)CC2)csc2ccc(F)cc12`, which Potency is on record?
Its Potency is active: 5.01 µM.

`Cc1ccc(-n2c(Cc3ccccc3)n[nH]c2=S)c(C)c1` was tested. Which Potency did it give?
Its Potency is “inactive”.

With `Cc1cccc(N2CCN(c3ccc4cc(S(=O)(=O)N5CCC(C)CC5)ccc4n3)CC2C)c1` (stereo not given) as the molecule, how does the Potency read?
Its Potency is inconclusive: 15.8 µM [inhibitor, partial curve, poor fit].

With `CCOC(=O)c1c(/N=C/C2C(=O)CCCC2=O)sc2c1CCCC2` as the molecule, how does the Potency read?
Its Potency is “inactive”.

`COc1ccc(C2(C)NC(=O)N(CC(=O)Nc3ccc(S(=O)(=O)N4CCCC4)cc3)C2=O)cc1` (stereo not given) was tested. Which Potency did it give?
The Potency was “inactive”.

`O=C(O)c1ccc(N2C(=O)/C(=C/c3ccc(-c4ccc([N+](=O)[O-])cc4)o3)C=C2c2ccccc2)cc1` was tested. Which Potency did it give?
Its Potency is active: 4.47 µM.

With `O=C(NCC1CCCO1)C(=O)N/N=C/c1ccc(O)c(Cl)c1` (stereo not given) as the molecule, how does the Potency read?
Its Potency is “inactive”.

Which Potency does the source give for `CC(=O)c1ccc(NC(=O)CSc2nccn2C2CCCC2)cc1` here?
Its Potency is “inactive”.

With `Nn1cc(Br)c(=O)[nH]c1=O` as the molecule, how does the Potency read?
The Potency was “inactive”.

`Cc1ncc([N+](=O)[O-])n1CCOC(=O)c1cc(Cl)cc(Cl)c1N` was tested. Which Potency did it give?
Its Potency is inconclusive: 25.1 µM [inhibitor, single point].

For `CN1CCc2c(sc3c2C(=O)NC(/C=C\c2ccccc2)N3)C1` (stereo not given), which Potency is on record?
Its Potency is active: 17.8 µM.

With `O=C(Nc1ccc(F)cc1F)c1ccc(-n2cnc3cccnc32)cc1` as the molecule, how does the Potency read?
The Potency was “inactive”.

How did the Potency turn out when `S=C(NC1CC1)NC1CCCc2ccccc21` (stereo not given) was run?
Its Potency is “inactive”.

For `CCOc1ccc(C2C(C(=O)c3ccco3)=C(O)C(=O)N2Cc2cccnc2)cc1OC` (stereo not given), which Potency is on record?
Its Potency is “inactive”.

`CC(=O)c1ccc(NC(=O)CSc2nnc3c(n2)[nH]c2ccccc23)cc1` was tested. Which Potency did it give?
Its Potency is inconclusive: 1.78 µM [inhibitor, partial curve].

Which Potency does the source give for `O=C(Nc1ccc(Cl)cc1Cl)C1=Cc2ccccc2OC1` here?
The Potency was inconclusive: 17.8 µM [inhibitor, partial curve].

Which Potency does the source give for `COc1ccc(CNC(=O)c2cc(-c3ccc(OC)c(OC)c3)nc3n[nH]c(-c4ccc(C)cc4)c23)cc1` here?
Its Potency is “inactive”.

For `CCOC(=O)N1CCN(CC(=O)Nc2cc(C)nn2-c2nc3ccccc3s2)CC1`, which Potency is on record?
The Potency was “inactive”.

How did the Potency turn out when `COc1ccc(OC)c(/C(O)=C/C(=O)C(=O)Nc2ccccc2OC)c1` was run?
The Potency was inconclusive: 31.6 µM [inhibitor, partial curve].

For `CCN(CC)c1ccc2cc(C(N)=O)c(=O)oc2c1`, which Potency is on record?
Its Potency is inconclusive: 17.8 µM [activator, partial curve].

For `N#CCCN(C(=O)COC(=O)c1cccc(S(=O)(=O)Nc2ccc([N+](=O)[O-])cc2)c1)c1ccccc1`, which Potency is on record?
The Potency was inconclusive: 17.8 µM [inhibitor, single point].

How did the Potency turn out when `CN(c1ccccc1)c1ccc(/C=C(\C#N)c2nnc3n2CCCCC3)cc1[N+](=O)[O-]` was run?
Its Potency is active: 14.1 µM.

`CC(C(=O)c1ccc(-c2ccccc2)cc1)[n+]1cccc(NC(=O)c2ccccc2)c1` (stereo not given) was tested. Which Potency did it give?
Its Potency is inconclusive: 11.2 µM [inhibitor, partial curve].

Which Potency does the source give for `Cc1cccc(S(=O)(=O)C(C#N)c2nc3ccccc3nc2N2CC(C)OC(C)C2)c1` (stereo not given) here?
The Potency was “inactive”.

For `CCOc1ccccc1N1CC(C(=O)N2CCc3ccccc32)CC1=O` (stereo not given), which Potency is on record?
The Potency was “inactive”.

How did the Potency turn out when `CCCCCCC(=O)N(O)C1CC(=O)N(c2ccccc2)C1=O` (stereo not given) was run?
Its Potency is inconclusive: 6.31 µM [inhibitor, partial curve].

With `CCCC(=O)NC(=S)NNC(=O)c1ccc([N+](=O)[O-])cc1` as the molecule, how does the Potency read?
Its Potency is “inactive”.

How did the Potency turn out when `O=C(O)c1ccc2c(c1Sc1ccccc1)C(=O)c1ccccc1C2=O` was run?
Its Potency is inconclusive: 11.2 µM [inhibitor, partial curve].

Which Potency does the source give for `CCCCNC(=S)NNc1c(Cl)cc(Cl)cc1Cl` here?
The Potency was “inactive”.

Which Potency does the source give for `COc1ccc(-c2cnc3n2CCCCC3)cc1` here?
The Potency was “inactive”.

Which Potency does the source give for `CCOc1ccc(/C=C(\C#N)C(=O)Nc2sc3c(c2C(=O)OC)CCC3)cc1OC` here?
Its Potency is inconclusive: 10 µM [inhibitor, partial curve].

Which Potency does the source give for `COc1cc(OC)c(C2=NOC(C(=O)N3CCN(C(=O)c4ccco4)CC3)C2)cc1Cl` (stereo not given) here?
The Potency was inconclusive: 25.1 µM [inhibitor, single point].

`C=CCn1c2ccccc2c2nnc(SCCCn3c(=O)[nH]c4ccccc43)nc21` was tested. Which Potency did it give?
Its Potency is inconclusive: 15.8 µM [inhibitor, partial curve].

Which Potency does the source give for `CC1CCCN(c2ccc([N+](=O)[O-])cc2C(=O)c2ccccc2)C1` (stereo not given) here?
Its Potency is inconclusive: 2.51 µM [inhibitor, single point].

For `CC1CCc2c(sc(NC(=O)Cn3cnc([N+](=O)[O-])n3)c2C(N)=O)C1` (stereo not given), which Potency is on record?
Its Potency is inconclusive: 4.47 µM [inhibitor, full curve, poor fit].

With `COC(=O)c1c(SCC(=O)Nc2ccccc2C(F)(F)F)[nH]c2ccc(Cl)cc2c1=O` as the molecule, how does the Potency read?
Its Potency is inconclusive: 12.6 µM [inhibitor, partial curve].

With `CCC(Sc1ccc2nnc(-c3ccc(F)cc3)n2n1)C(=O)OC` (stereo not given) as the molecule, how does the Potency read?
Its Potency is “inactive”.

With `Cc1ccc(CNC(=O)CCc2c(C)c3cc4c(C)coc4cc3oc2=O)cc1` as the molecule, how does the Potency read?
Its Potency is “inactive”.

With `O=C(N/N=C/c1ccc(-c2ccccc2[N+](=O)[O-])o1)[C@H]1C[C@@H]1c1ccccc1` as the molecule, how does the Potency read?
Its Potency is active: 4.47 µM.

Which Potency does the source give for `CCOC(=O)c1ccc(N2C(=O)c3n[nH]c(-c4cccs4)c3C2c2cccc(O)c2)cc1` (stereo not given) here?
Its Potency is inconclusive: 39.8 µM [activator, single point].

`COc1ccc(N2CCN(C(=O)CCCCn3c(=O)[nH]c4ccsc4c3=O)CC2)cc1` was tested. Which Potency did it give?
The Potency was inconclusive: 28.2 µM [inhibitor, single point] and inconclusive: 6.31 µM [inhibitor, partial curve].

With `O=C(CCC1N=C2c3ccccc3N=C(SCc3ccc(F)cc3)N2C1=O)N1CCN(c2ccccc2)CC1` (stereo not given) as the molecule, how does the Potency read?
The Potency was inconclusive: 10 µM [inhibitor, partial curve].

How did the Potency turn out when `COc1ccc(NC(=O)[C@@H]2[C@@H]3C(=O)N(C4CCCCC4)C(=O)[C@@H]3C3c4ccccc4C=CN32)cc1` (stereo not given in full) was run?
The Potency was inconclusive: 25.1 µM [inhibitor, partial curve].

How did the Potency turn out when `COc1cccc(CNC(=O)c2c[nH]n3c(=O)c(Cl)c(C)nc23)c1` was run?
The Potency was inconclusive: 14.1 µM [inhibitor, partial curve, poor fit].

For `N#Cc1c(-n2ncnc2-c2ccccc2Cl)sc2c1CCCCC2`, which Potency is on record?
Its Potency is inconclusive: 5.62 µM [inhibitor, full curve, poor fit].

Which Potency does the source give for `Cc1ccc(/C=C2\SC(=S)N(/N=C/c3cc([N+](=O)[O-])ccc3O)C2=O)o1` here?
Its Potency is active: 17.8 µM.

How did the Potency turn out when `COc1ccc(CC(N)C(=O)NC2C(CO)OC(n3cnc4c(N(C)C)ncnc43)C2O)cc1` (stereo not given) was run?
Its Potency is “inactive”.

`COc1ccc2nc(SCC(=O)Nc3ccc(S(=O)(=O)Nc4onc(C)c4C)cc3)[nH]c2c1` was tested. Which Potency did it give?
The Potency was inconclusive: 14.1 µM [inhibitor, partial curve].

`COc1ccc([N+](=O)[O-])cc1NC(=O)C(C)Sc1nc(-c2ccccc2)cs1` (stereo not given) was tested. Which Potency did it give?
The Potency was inconclusive: 14.1 µM [inhibitor, partial curve].

With `CCC(CC)C(=O)N1CCc2cc(OC)c(OC)cc2C1COc1ccc(C(=O)OC)cc1` (stereo not given) as the molecule, how does the Potency read?
The Potency was “inactive”.

How did the Potency turn out when `CCCCNC(=S)N(C)/N=C/c1sc(N2CCCCC2)nc1-c1cccs1` was run?
Its Potency is “inactive”.

Which Potency does the source give for `Cc1ccc2c(COC(=O)c3n[nH]c4ccccc34)cc(=O)oc2c1` here?
Its Potency is inconclusive: 2.82 µM [inhibitor, full curve].

For `Cn1c(SCC(=O)c2ccc3c(c2)OCO3)nnc1C1COc2ccccc2O1` (stereo not given), which Potency is on record?
Its Potency is inconclusive: 31.6 µM [inhibitor, partial curve].

For `COc1ccc2nc(N3CCCC3)c(C#N)cc2c1`, which Potency is on record?
The Potency was inconclusive: 15.8 µM [activator, partial curve].

`O=C(/C=C/c1ccccc1)c1ccc(O)cc1O` was tested. Which Potency did it give?
Its Potency is inconclusive: 12.6 µM [inhibitor, partial curve].

With `COc1ccc(CC(=O)Nc2cc(-c3nc4cccnc4s3)ccc2C)cc1` as the molecule, how does the Potency read?
The Potency was “inactive”.

With `CN(C)S(=O)(=O)N(CC(=O)NCCSCc1cccc(Cl)c1)c1ccccc1` as the molecule, how does the Potency read?
The Potency was “inactive”.

`CCC1(C)Cc2c(sc3nc(NC)n(C)c(=O)c23)CO1` (stereo not given) was tested. Which Potency did it give?
The Potency was inconclusive: 39.8 µM [inhibitor, single point].

With `CCn1c(C)c(C)c2cc(C(=O)N3CCN(c4cccc(C)c4C)CC3)ccc21` as the molecule, how does the Potency read?
Its Potency is inconclusive: 25.1 µM [inhibitor, single point].
